Laboratory results as given in PubChem BioAssay AID588855 (National Center for Advancing Translational Sciences (NCATS), 2011).
In all, about 410,000 compounds went through this assay and about 5,000 (1.2%) were called active. Inconclusive results, whose numbers are uncertain, are shown with a selection of clear calls. Calls come from the whole dose curve; as a rule, active = well fitted inhibition curve with a large enough effect; inconclusive = small, poorly fitted or top-dose-only effect; inactive = no such curve, though single readings can be large or run the other way. Potencies beside an inconclusive call are fits to weak or partial responses and may not hold up.

experiment: qHTS for Inhibitors of TGF-b; conditions: HepG2 CAGA-GFP TGF-b/SMAD3 reporter, GFP fluorescence, 18 h, TGF-beta stimulated, 500 pg/mL final; series mostly up to 46.1 µM; activity, negative = inhibition: at the top concentration; note: nearly all actives have a fitted effect of over 65% in size
In short: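 HEPG2 CAGA-GFP reporter cells (1000/well, DMEM with 1% FBS) received compounds, then recombinant TGF-beta at 500 pg/mL final for 18 hours at 37 degrees C. Per-cell GFP summed per well was normalised to unstimulated and stimulated DMSO controls before curve fitting.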
% is set by controls: 0 for no effect and ±100 for the full control effect; potency is the fitted concentration of half-maximal effect; tags give direction and shape of the fitted curve.

Structure (SMILES) | Potency | activity, negative = inhibition
Cn1c(=O)oc2cc(S(=O)(=O)NCCC(=O)NCCc3ccc(Cl)cc3)ccc21 | inconclusive: 35.5 µM [inhibitor, single point] | 
Fc1ccc(N2CCN(c3ncnc4c3nc3n4CCCCC3)CC2)cc1 | inconclusive: 4.47 µM [inhibitor, partial curve] | 
CCOC(=O)c1cccc(NC(=O)c2cc(S(=O)(=O)N3CCCC(C)C3)cn2C)c1 (stereo not drawn) | inconclusive: 22.4 µM [inhibitor, partial curve, poor fit] | 
Cc1ccc(C(=O)OCC(=O)NC2CCCCC2)o1 | inconclusive: 6.31 µM [inhibitor, single point] | 
O=C(c1ccc2c(c1)N(Cc1ccc(F)cc1Cl)C(=O)c1ccccc1S2)N1CCC2(CC1)OCCO2 | active: 11.2 µM | 
CCc1ccc(-c2nc(CN3CCCC(C(=O)NCc4ccc(C)cc4)C3)c(C)o2)cc1 (stereo not drawn) | inconclusive: 0.708 µM [inhibitor, full curve, poor fit] | 
CN(c1ccccc1)P(=O)(N1CC1)N1CC1 | inconclusive: 22.4 µM [inhibitor, single point] | 
COc1cc2c(cc1O)C[C@H]1NCCc3cc4c(c-2c31)OCO4 | inconclusive: 35.5 µM [inhibitor, partial curve, poor fit] | 
COc1ccc(-n2c(/C=C/c3ccc(O)cc3)nc3ccccc3c2=O)cc1 | inconclusive: 4.47 µM [inhibitor, partial curve, poor fit] | 
COC(=O)C1=C(c2ccc(OC(F)(F)F)cc2)C[C@@H]2CC[C@H]1N2C(=O)NC1CCCCC1 | inconclusive: 22.4 µM [inhibitor, single point] | 
O=[N+]([O-])c1ccc(C(c2ccc([N+](=O)[O-])cc2)c2ccc([N+](=O)[O-])cc2)cc1 | inconclusive: 25.1 µM [inhibitor, single point] | 
Cc1ccc(NC(=O)CN2C(=O)CN=C(c3ccccc3)c3ccccc32)c(C)c1 |  | inactive: 7.37%
Cc1cccc(-n2c(O)c(/C=C3/C(c4ccccc4)=Nc4ccccc43)c(=O)[nH]c2=O)c1 | inconclusive: 35.5 µM [inhibitor, single point] | 
CCOP(=O)(OCC)c1nc(-c2cccc3ccccc23)oc1NCc1ccccc1 | inconclusive: 25.1 µM [inhibitor, single point] | 
Cn1c(O)c(C=NCCN2CCNCC2)c(=O)[nH]c1=O |  | inactive: -21.3%
COc1ccccc1N1CCN(S(=O)(=O)CCNC(=O)C2CC(=O)N(c3ccccc3)C2)CC1 (stereo not drawn) | inconclusive: 35.5 µM [inhibitor, single point] | 
COC(=O)C1=C(c2cccc(OC)c2OC)C[C@@H]2CC[C@H]1N2C |  | inactive: 5.07%
O=[N+]([O-])c1ccc(S(=O)(=O)N2CCn3cccc3C2c2ccccc2F)cc1 (stereo not drawn) | inconclusive: 1.58 µM [inhibitor, partial curve, poor fit] | 
CC(=NCCc1c[nH]c2ccccc12)c1c(O)n(Cc2ccccc2)c(=O)[nH]c1=O | active: 11.2 µM | 
c1cncc(CNCCc2ccc3c(c2)OCO3)c1 |  | inactive: -10.6%
COc1cc2c(c(OC)c1OC)-c1ccc(O)cc1[C@@H](NC(C)=O)CC2 | inconclusive: 0.794 µM [inhibitor, full curve] | 

Structure (SMILES) | Potency | activity, negative = inhibition
NS(=O)(=O)c1ccc(CCNC(=O)c2ccc(Cl)c(S(=O)(=O)N3CCCCCC3)c2)cc1 | inconclusive: 25.1 µM [inhibitor, single point] | 
CCCCn1nnnc1C(CCc1ccccc1)N1CCC(n2c(=O)[nH]c3ccccc32)CC1 (stereo not drawn) | inconclusive: 22.4 µM [inhibitor, single point] | 
CCCCCn1c(=O)c(C(=O)NCc2ccc(Cl)cc2)c(O)c2ccccc21 |  | inactive: -16.2%
CCOc1ccccc1-n1c(O)c(C=Nc2ccc(N(CC)CC)cc2)c(=O)[nH]c1=O |  | inactive: 5.58%
O=[N+]([O-])c1ccc(N2CCCC(C(F)(F)F)C2)c2ccncc12 (stereo not drawn) | inconclusive: 35.5 µM [inhibitor, single point] | 
CCC(c1nnnn1Cc1ccccc1)N1CCC(n2c(=O)[nH]c3ccccc32)CC1 (stereo not drawn) | inconclusive: 11.2 µM [inhibitor, single point] | 
COc1cc(/C=C/c2nc3ccccc3c(=O)n2-c2ccc(Br)c(C)c2)ccc1O | inconclusive: 2.82 µM [inhibitor, partial curve] | 
CCCNC(=O)N1[C@H]2CC[C@@H]1C(C(=O)OC)=C(c1cc3ccccc3o1)C2 | inconclusive: 5.62 µM [inhibitor, single point] | 
O=C1CC(=O)N(c2ccccc2)C(=O)N1 | inconclusive: 25.1 µM [inhibitor, single point] | 
CCOC(=O)c1cccc(NC(=O)c2cnc(N3CCCCC3)c3ccccc23)c1 | inconclusive: 10 µM [inhibitor, partial curve] | 
Cc1ccc2c(c1)CC1(CN2C)C(=O)NC(=O)N(c2cc(C)ccc2C)C1=O (stereo not drawn) |  | inactive: 4.11%
O=P1(Oc2ccccc2)CC=C[C@H](COCc2ccccc2)O1 (stereo partly drawn) | inconclusive: 1.26 µM [inhibitor, full curve] | 
Cc1ccc(N=C2N=C(N)c3ccccc32)c(C)c1 | inconclusive: 12.6 µM [inhibitor, single point] | 
O=C(COC(=O)c1cccc(O)c1)Nc1ccc(Cl)cc1C(=O)c1ccccc1 | inconclusive: 17.8 µM [inhibitor, single point] | 
CNc1cc(Cl)c2nonc2c1[N+](=O)[O-] | active: 5.62 µM | 
N=C(N)c1c(O)n(C2CCCCC2)c(=O)n(C2CCCCC2)c1=O | inconclusive: 35.5 µM [inhibitor, single point] | 
CCC(=Nc1ccc(OC)cc1OC)c1c(O)n(C2CCCCC2)c(=O)[nH]c1=O | inconclusive: 35.5 µM [inhibitor, single point] | 
COc1cccc(C(=O)C2CCCN(Cc3ccc4nsnc4c3)C2)c1 (stereo not drawn) |  | inactive: 3.63%
C[C@]12CCC3C(CC[C@@H]4[C@H]5O[C@H]5CC[C@]34C)C1CC[C@@H]2O (stereo partly drawn) |  | inactive: -29.5%
O=S(=O)(c1ccc(Cl)cc1)N1Cc2cc(Br)ccc2-n2nncc2C1 | inconclusive: 7.94 µM [inhibitor, partial curve, poor fit] | 
Cn1c(=O)c2c(nc(N/N=C/c3c(O)n(-c4ccccc4)c(=S)[nH]c3=O)n2C)n(C)c1=O |  | inactive: 9.28%

Structure (SMILES) | Potency | activity, negative = inhibition
CC(C)CN(CC(C)C)c1ccc(C=C2C(=O)NC(=S)NC2=O)cc1[N+](=O)[O-] | inconclusive: 15.8 µM [inhibitor, single point] | 
COc1ccc(-c2nn(Cc3ccccc3)cc2C(=O)NC2CC2)cc1OC |  | inactive: 0.192%
CCOC(=O)c1cccc(C2=C(CNC(=O)c3ccncc3)[C@H]3CC[C@@H](C2)N3Cc2ccccc2)c1 |  | inactive: -12.1%
O=C(Nc1ccc2c(c1)OCCO2)c1cccn(Cc2cccc([N+](=O)[O-])c2)c1=O | inconclusive: 11.2 µM [inhibitor, partial curve] | 
Cc1cccc(C)c1-n1nnnc1C(CCc1ccccc1)N1CCC(n2c(=O)[nH]c3ccccc32)CC1 (stereo not drawn) | inconclusive: 5.62 µM [inhibitor, single point] | 
Cc1nc2c(-c3ccccc3)c(C)nn2c(C)c1CCC(=O)N1CCC2(CC1)OCCO2 |  | inactive: -13.9%
COC(=O)C1=C(c2ccc(F)cc2OCc2ccccc2)C[C@@H]2CC[C@H]1N2C(=O)NCc1ccccc1OC | inconclusive: 11.2 µM [inhibitor, partial curve] | 
CC(=O)N1N=C(c2cccnc2)CC1c1ccccc1O (stereo not drawn) | inconclusive: 12.6 µM [inhibitor, partial curve, poor fit] | 
CCCOP(=O)(OCCC)C(Nc1cccc(C(F)(F)F)c1)c1ccc(C)cc1 (stereo not drawn) | inconclusive: 14.1 µM [inhibitor, partial curve] | 
COC(=O)C1=C(c2ccc(OCc3ccccc3)cc2)C[C@@H]2CC[C@H]1N2C(=O)NCc1ccc(F)cc1 | inconclusive: 0.631 µM [inhibitor, partial curve, poor fit] | 
CC(C)(O)[C@H]1O[C@H]2CC[C@@]3(C)[C@@](O)(CC[C@H]4Cc5c([nH]c6ccccc56)[C@@]43C)C2=CC1=O | inconclusive: 35.5 µM [inhibitor, single point] | 
C=C[C@@H]1C2=CCOC(=O)C2=CO[C@H]1O[C@@H]1O[C@H](CO)[C@@H](O)[C@H](O)[C@H]1O | inconclusive: 0.891 µM [inhibitor, full curve, poor fit] | 
COC(=O)C1=C(c2cc3ccccc3s2)C[C@@H]2CC[C@H]1N2C(=O)NCc1ccc(F)cc1 | inconclusive: 28.2 µM [inhibitor, single point] | 
COCCO[C@H]1CC[C@@]2(C)C(=CCC3C2CC[C@@]2(C)C3CC[C@]2(C)O)C1 (stereo partly drawn) |  | inactive: 39%
Cc1ccc(CNS(=O)(=O)c2cc3c(cc2C)N(C)CCO3)cc1 | inconclusive: 35.5 µM [inhibitor, single point] | 
COC(=O)C1=C(c2ccc(OC(F)(F)F)cc2)C[C@@H]2CC[C@H]1N2C(=O)N1CCC(O)CC1 | inconclusive: 7.94 µM [inhibitor, partial curve, poor fit] | 
C=Cn1ccnc1P(=S)(c1nccn1C=C)C1CCCCC1 |  | inactive: -3.73%
O=c1c2ccccc2nc(-c2ccc(-c3ccccc3)cc2)n1-c1ccncc1 | inconclusive: 11.2 µM [inhibitor, partial curve, poor fit] | 
CCOP(=O)(OCC)C(O)c1ccc2c(c1)OCO2 (stereo not drawn) |  | inactive: 0.714%
N#Cc1cc2c(nc1SCC(=O)Nc1cccc(F)c1)C1CCN2CC1 | inconclusive: 10 µM [inhibitor, partial curve, poor fit] | 
CCOC(=O)c1c(C)[nH]c(C)c1S(=O)(=O)NCC(=O)N1CCN(c2cc(Cl)ccc2C)CC1 | inconclusive: 0.631 µM [inhibitor, full curve] | 
